From patent US20100075377A1 (published 2010)

Target: T1, PD-1 expressed on transfected BHK 570 cells (UniProt Q15116 25-288, limits assumed)
T1 construct: whole, on cells; also called cell surface PD-1
Test: competition of unlabelled protein with 250 pM 125I-B7H1VASP-His6 on BHK cells expressing PD-1

T1 sequence (Q15116 25-288 limits assumed): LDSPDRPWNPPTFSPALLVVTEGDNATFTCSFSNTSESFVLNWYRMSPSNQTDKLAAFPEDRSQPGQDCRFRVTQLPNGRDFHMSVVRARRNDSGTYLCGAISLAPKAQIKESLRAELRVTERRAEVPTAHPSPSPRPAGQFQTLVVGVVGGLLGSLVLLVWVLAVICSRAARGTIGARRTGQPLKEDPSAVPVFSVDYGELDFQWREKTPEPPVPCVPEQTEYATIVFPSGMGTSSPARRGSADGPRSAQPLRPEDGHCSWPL

fold greater affinity, as compared to B7H1IgG: 10 fold
B1: B7H1VASP-His6 (tetrameric fusion of the B7H1 extracellular domain, VASP tetramerization domain and His6 tag) (ligand)
chain: not shown
modifications: 125I-labelled in the tracer form (IODO-TUBES; sites not stated); the unlabelled form was used as competitor
notes: Made in BHK570 cells; SEC-MALS is consistent with a tetramer; also called B7H1-VASP fusion protein; zB7H1VASP
